This note sets out measurements from PubChem BioAssay AID1240 (Sanford-Burnham Center for Chemical Genomics, 2008).

In all, about 50,000 compounds went through this assay and about 800 (1.6%) showed an effect of 50% or more. Some of the results follow.

This assay addresses Bcl-2-like protein 10 (Homo sapiens) (UniProt Q9HD36). Put plainly: Phenotype converters, Bcl-B/TR3 peptide binding displacement, primary biochemical FP (AID 1240).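 Note: 0% = Bcl-B with tracer peptide and DMSO and 100% = tracer peptide lacking Bcl-B.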 Particulars: GST-Bcl-B / FITC-TR3 peptide fluorescence polarization; stronger effect = higher value; compound at 3.75 mg/L.
Chain of UniProt Q9HD36 (Q9HD36 whole entry, looked up): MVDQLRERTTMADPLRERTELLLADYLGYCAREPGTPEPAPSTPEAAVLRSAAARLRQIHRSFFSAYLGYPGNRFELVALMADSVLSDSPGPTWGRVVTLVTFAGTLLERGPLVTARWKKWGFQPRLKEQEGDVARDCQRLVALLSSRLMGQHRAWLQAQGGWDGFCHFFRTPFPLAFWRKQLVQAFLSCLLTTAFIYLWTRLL
On to `CN1C(=O)/C(=C\c2ccc(OC(=O)c3ccc(Cl)cc3)cc2)SC1=S`, for which the displacement worked out at 15.8%.

Consider `O=C(O)/C=C\C(=O)Nc1ccccc1C#Cc1ccc(Br)cc1`, for which the displacement was -7.8%.

Regarding `CCOc1ccc(-c2cc(C)n3nc(C(=O)N(C)Cc4ccccc4)cc3n2)cc1`, the displacement was 33.6%.

With `COC(=O)c1ccc(C2Nc3ccc4ncccc4c3C3=C2C(=O)CCC3)cc1` (stereo unspecified), the displacement is 3.8%.

With `O=C(O)c1cccc(N2C(=O)c3ccc(Oc4cccc([N+](=O)[O-])c4)cc3C2=O)c1`, the displacement is 1.6%.

`CC1S/C(=N/N=C/c2cccc(Br)c2)NC1=O` (stereo unspecified): the displacement is 7.2%.

For the molecule `C=CCNC(=S)N/N=C/c1ccc(N(C)C)cc1`, the displacement was -2.8%.

With `O=C(Oc1ccc(Br)cc1/C=N/NC(=O)c1ccccn1)c1ccc(Br)cc1`, the displacement is -5.9%.

`O=C(CCc1ccccc1)Nc1ccccc1Cl`: the displacement is 11.1%.

Turning to `O=c1oc2c(-c3cc(Cl)ccc3Cl)cc(O)cc2s1`, the displacement is 5.3%.

In the case of `Cc1ccc2nc(NC3=NC(CC(=O)O)C(=O)N3)nc(C)c2c1` (stereo unspecified), the displacement was -11.3%.

With `COc1ccc(C(=O)NC(c2ccccc2)c2ccccc2)cc1OC`, the displacement is -0.9%.

For `COc1ccc(-c2cc(-c3ccccc3)nc(-n3[nH]c(-c4ccccc4)cc3=O)n2)cc1OC`, the displacement is -5.1%.

As to `O=C1c2ccccc2C(=O)N1CN1CCC(Cc2ccccc2)CC1`, the displacement amounted to 10.3%.

In the case of `COc1ccccc1OCC(=O)NNC(=O)C(OC)c1ccccc1` (stereo unspecified), the displacement is -0.4%.

Regarding `CCOC(=O)c1c(NC(=O)c2ccc(C(=O)c3ccccc3)cc2)sc2c1CCC2`, the displacement stood at 10.7%.

`c1ccc2c(c1)N1CCN=C1N2CCN1CCCCC1`: the displacement was -5.2%.

For the molecule `CCOc1ccc(C2C(C(C)=O)=C(O)C(=O)N2CC2CCCO2)cc1` (stereo unspecified), the displacement was -2.6%.

Consider `Cc1ccc(N=C2NC(=O)/C(=C/c3ccc(O)c([N+](=O)[O-])c3)S2)cc1Cl`, for which the displacement is -4.1%.

For `O=C(Nc1ccc(NC(=O)c2cc3ccccc3o2)cc1)c1ccco1`, the displacement worked out at 3.7%.

For `C/C(CC(=O)Nc1cccc(F)c1)=N\NC(=O)c1ccc(O)cc1O`, the displacement was 1%.

As to `Cc1ccc(/C=C/C(=O)Nc2nc3ccc(S(C)(=O)=O)cc3s2)cc1`, the displacement is -4.4%.

With `CCOc1ccccc1-c1cc(C(=O)O)c2ccccc2n1`, the displacement is -5.1%.

For the molecule `COc1ccc(/C=C2\SC(=S)N(CCCC(=O)Nc3cccc(C(=O)O)c3)C2=O)cc1`, the displacement worked out at 5.1%.

With `CCOc1ccc(-c2cc(C(=O)O)c3ccccc3n2)cc1OCC`, the displacement was -2.4%.

Turning to `COC(=O)c1ccc(C2CC(=O)Nc3c2cc(Br)c2ccccc32)cc1` (stereo unspecified), the displacement was -1.4%.

For the molecule `CC(C)OC(=O)c1c(NC(=O)C2C3CCC(C3)C2C(=O)O)sc2c1CCCC2` (stereo unspecified), the displacement was -9%.

For the molecule `COc1ccc(CCNC(=O)C(=O)Nc2ccccc2C)cc1`, the displacement is 10%.

For `Cc1cccc(NC(=O)C(=O)NCc2ccc3c(c2)OCO3)c1C`, the displacement stood at 5.6%.

As for `COc1ccc(N(CC(=O)N2CCCC2)S(=O)(=O)c2ccc(NC(C)=O)cc2)cc1`, the displacement was -1.3%.

Take `Cc1ccc(NC(=O)CC2CCCCC2)cc1`: the displacement was -6.4%.

On to `COc1cc(Cl)cc(/C=N/NC2=NS(=O)(=O)c3ccccc32)c1O`, for which the displacement was -0.8%.

Turning to `CCOC(=O)c1c(NC(=O)c2cccnc2)sc2c1CCC2`, the displacement is 3.1%.

Take `C/C(=N\Nc1cccc2cccnc12)c1cc([N+](=O)[O-])cs1`: the displacement is -3.6%.

As to `O=C(Cc1ccccc1)NNC(=O)c1ccccc1C(=O)O`, the displacement was -4.8%.

Turning to `CN1CCc2c(sc3c2C(=O)NC(c2ccc(Cl)s2)N3)C1` (stereo unspecified), the displacement was determined as 4%.

Regarding `Cc1ccnc(NC(=O)C(c2ccccc2)c2ccccc2)c1`, the displacement was -8.9%.

In the case of `COc1ccc(-n2nc3cc(C)c(NC(=O)c4cccc(OC)c4)cc3n2)cc1`, the displacement came to 3.5%.

In the case of `CC(C)c1ccc(N(CC(=O)N/N=C/c2cc(Cl)cc(Cl)c2O)S(=O)(=O)c2ccccc2)cc1`, the displacement amounted to 16.5%.

As to `COc1ccc(NC(=O)c2ccc(OC3CSC3)cc2)cc1`, the displacement is -1%.

As to `CCC(C)NC(=O)CN(c1ccc(F)cc1)S(=O)(=O)c1ccccc1` (stereo unspecified), the displacement was determined as 4.5%.

`NC(=O)c1ccc(NS(=O)(=O)c2ccc(F)cc2)cc1`: the displacement was 2.7%.

For `O=C(Cc1ccccc1)Nc1ccc(NC(=O)c2ccco2)cc1`, the displacement is -1.3%.

On to `O=[N+]([O-])c1cc2c(cc1C1NN=C(c3ccccc3)S1)OCO2` (stereo unspecified), for which the displacement turned out to be 9.8%.

Take `CC1(C)Cc2ccccc2-c2nc(NN)n(Cc3ccccc3)c(=O)c21`: the displacement stood at 5.7%.

For the molecule `COc1ccc(N(C(C)C(=O)N/N=C/c2cccnc2)S(C)(=O)=O)cc1` (stereo unspecified), the displacement is 8%.

Take `COc1cc(/C=C2\SC(=Nc3ccc(C)c(Cl)c3)NC2=O)ccc1O`: the displacement was -111%.

Turning to `O=C(NCC(O)c1ccccc1)C(=O)Nc1ccccc1` (stereo unspecified), the displacement is -4%.

Turning to `O=[N+]([O-])c1ccc(OCCCCNCCO)cc1`, the displacement worked out at 6.5%.

Consider `O=C(Nc1ccccc1F)c1ccccc1[N+](=O)[O-]`, for which the displacement worked out at 17.3%.

Turning to `CCOC(=O)c1c(-c2ccc(C)cc2)csc1NC(=O)C(C)(C)C`, the displacement came to 7.5%.

On to `O=C(CCNc1ccc(-c2ccccc2)cc1)c1ccc(Br)cc1`, for which the displacement is -13%.

As for `Cc1ccc([N+](=O)[O-])cc1N1C(=O)C=CC1=O`, the displacement was 17.3%.

As to `COc1ccc(C(N)=O)cc1NC(=O)c1cccc(F)c1`, the displacement worked out at 10.9%.

Turning to `CC1=C(C(=O)Nc2ccccc2)C(c2ccc(C)cc2)NC(=S)N1` (stereo unspecified), the displacement is -3.6%.

Turning to `COc1cc(/C=C2/SC(=S)NC2=O)ccc1OCCOCCOc1ccc(C)cc1`, the displacement is 6.9%.

For `COc1ccc(CSc2nnnn2C)cc1`, the displacement is 0.6%.

As to `COc1ccc(-c2noc(-c3cccc(OC)c3)n2)cc1`, the displacement came out at 11.5%.

Take `O=C(O)CCCN1C(=O)/C(=C\c2ccco2)SC1=S`: the displacement is 12.2%.

Consider `CC(=O)Nc1ccc(S(=O)(=O)Nc2ccccc2C(=O)Nc2ccccc2)cc1`, for which the displacement is -9.4%.

`COc1ccc(C(=O)NC(c2ccc(OC)cc2)c2ccc(OC)cc2)cc1`: the displacement is -12.4%.

As for `COc1ccc(-c2csc(NC(=O)c3ccc(S(=O)(=O)N4CCCC4)cc3)n2)cc1C`, the displacement was -11.5%.

`CC(C)c1cc(Nc2cccc(O)c2)cc(C(C)C)c1O`: the displacement amounted to 3.5%.

Consider `CC1=C(C(=O)OCc2ccccc2)C(c2ccc(C)s2)C2=C(CCCC2=O)N1` (stereo unspecified), for which the displacement turned out to be 0.3%.

Consider `COc1cc2c(cc1OC)CC1(CCCC1)N=C2`, for which the displacement turned out to be 8.6%.

With `Cc1ccc(NC(=O)/C=C/c2ccccc2)cc1F`, the displacement is 8.7%.

Consider `O=C(COc1ccc(Cl)cc1)Nc1ccc(F)c([N+](=O)[O-])c1`, for which the displacement turned out to be 6%.

Consider `Cc1ccc(-c2nn(-c3cc(N4CCCC4)ccc3[N+](=O)[O-])c(=O)c3ccccc23)c(C)c1`, for which the displacement was determined as 2.1%.

In the case of `COc1cccc(N2C(=O)C(=O)/C(=C(\O)c3ccccc3)C2c2ccc(OC)c(OC)c2)c1` (stereo unspecified), the displacement stood at 6.8%.

`COc1ccc2c(c1)-c1c(ssc1=S)C(C)(C)N2C(=O)CSc1nncn1C`: the displacement amounted to 10.6%.

On to `O=C(Nc1ccccc1[N+](=O)[O-])c1ccc(=O)oc1`, for which the displacement is -0.6%.

Turning to `CCOC(=O)C(=C/C=C1/Sc2ccccc2N1C)C(=O)OCC`, the displacement is 131%.

For `Cc1ccc(NC(=O)c2ccc(Cl)cc2Cl)c(C)c1`, the displacement was -1.3%.

With `COc1cccc(N2C(=O)C(=O)/C(=C(\O)c3ccccc3)C2c2ccc(C)cc2)c1` (stereo unspecified), the displacement was -0.7%.

With `COc1cc(SC)ccc1C(=O)N1CCc2ccccc21`, the displacement worked out at 2.9%.

Consider `CCN1C(=O)C(C23CC4CC(CC(C4)C2)C3)NC1=S` (stereo unspecified), for which the displacement was -0.4%.

Take `Nc1nnc(SCC(=O)Nc2ccccc2Oc2ccccc2)s1`: the displacement is -12.7%.

For `COc1cc(NC(=O)CCc2ccccc2)c(OC)cc1Cl`, the displacement was -6.7%.

For the molecule `Cc1cc(C)cc(OCCCCN2CCCCC2)c1`, the displacement worked out at 0.7%.

For `Cc1cc(C)nc(N2CCN(C(=O)c3cccc(Br)c3)CC2)n1`, the displacement turned out to be 7.8%.

As for `O=[N+]([O-])c1cccc(C2Nc3c(cccc3[N+](=O)[O-])C3C=CCC32)c1` (stereo unspecified), the displacement came out at 21.3%.

With `O=C(O)C1CC=CCC1C(=O)Nc1ccc(F)c(F)c1` (stereo unspecified), the displacement was -1.2%.

`CCOC(=O)C1C(=O)CC(C)(O)C(C(=O)OCC)C1c1cccc(Cl)c1` (stereo unspecified): the displacement is -8.7%.

Consider `Cc1ccc(/C=C2\SC(=S)N(c3ccc(C)c(C)c3)C2=O)o1`, for which the displacement is 14.9%.

For `COc1ccc(-n2nc3cc(C)c(NC(=O)Cc4ccccc4)cc3n2)cc1`, the displacement was 3.9%.

Take `CCOC(=O)c1ccc(NC(=O)CCN2C(=O)S/C(=C\c3ccccc3OC)C2=O)cc1`: the displacement was found to be 6.3%.

With `NC(=O)c1ccc(NC(=O)COc2ccc3ccccc3c2)cc1`, the displacement was -5.3%.

Consider `CCOC(=O)C1=C(C)NC(=O)CC1c1cc2c(cc1[N+](=O)[O-])OCO2` (stereo unspecified), for which the displacement was found to be 2.2%.

In the case of `O=C(NNS(=O)(=O)c1ccc2ccccc2c1)c1ccccc1F`, the displacement is -15.1%.

Turning to `CC1CCc2c(sc(NC(=O)c3cccc(C(=O)O)c3)c2C(N)=O)C1` (stereo unspecified), the displacement is -0.7%.

Consider `CCN(CC)CC(=O)c1ccc(-c2ccccc2)cc1`, for which the displacement was found to be 7.4%.

Regarding `O=C(NC(=S)Nc1ccc(Cc2ccncc2)cc1)c1ccc(Cl)cc1`, the displacement is 0.3%.

On to `CCC(C(=O)Nc1cc(C(=O)OC)ccc1C(=O)OC)c1ccccc1` (stereo unspecified), for which the displacement came to 5%.

Turning to `CCSC1(CCC(=O)OC)C(C)=C(C)C(=O)N1Cc1ccccc1` (stereo unspecified), the displacement is 0.4%.

As to `CCc1c(O)nc(SCC(=O)N2CCCCC2)[nH]c1=O`, the displacement was -7.3%.

For the molecule `CCc1ccc(-n2c(C)cc(/C=N/NC(=O)c3cccnc3)c2C)cc1`, the displacement was -20.8%.

Turning to `CCCCc1sc(-c2c(C#N)c(N)nc3c2CCCCC3)cc1[N+](=O)[O-]`, the displacement is -12.1%.

With `Cn1c(=O)cc2c3c(c(Oc4ccccc4)ccc31)C(=O)c1ccccc1-2`, the displacement came out at 108%.

In the case of `COc1ccccc1N(CC(=O)Nc1c(C)cccc1C)S(=O)(=O)c1ccccc1`, the displacement came out at 5.1%.

`O=C1NC2=Nc3ccccc3NC(c3ccccc3)=C2C(c2ccc(OC(F)F)cc2)N1` (stereo unspecified): the displacement came to 13.6%.

For `Fc1cccc(Cl)c1CSc1nnc(-c2ccccc2)o1`, the displacement was -5.5%.

Regarding `O=C(C1CCCC1)N1CCN(c2ccc(F)cc2)CC1`, the displacement was -0.9%.

For `CC(C)Cc1ccc(C(C)C(=O)N2CCOCC2)cc1` (stereo unspecified), the displacement came to 8.1%.

On to `COc1ccc(/C=C(\NC(=O)c2ccc(Cl)cc2)C(=O)NCc2cccnc2)cc1OC`, for which the displacement is 10.8%.

In the case of `O=C(O)CC(NS(=O)(=O)c1cc(Cl)ccc1Cl)c1ccccc1` (stereo unspecified), the displacement was determined as 14.6%.

Turning to `O=C(COc1ccc(Cl)cc1)NNC(=O)c1ccc([N+](=O)[O-])cc1Cl`, the displacement is -5.9%.

`O=C(Nc1ccccc1-c1nc2ccccc2s1)c1cccc(Cl)c1`: the displacement stood at 9.2%.

As to `C=C(C)c1cccc(C(C)(C)NC(=O)NCc2ccccn2)c1`, the displacement came out at 6.3%.

`N#CC1=C(N)Oc2cc(N)ccc2C1C1CC=CCC1` (stereo unspecified): the displacement is -3.9%.

Take `O=C(N/N=C/c1ccccc1F)c1ccccc1I`: the displacement came to 18%.

Consider `Cc1cccc(N2CCN(C(=S)c3ccc(-c4ccc(Cl)cc4Cl)o3)CC2)c1`, for which the displacement was 17.6%.
